In all, about 33,000 sequences were measured (“E-score (-0.5 to 0.5)”: median about -0.016, highest 2% from about 0.32 on). This is one part of the list.
Molecular target: T1, Stp1 (UniProt B3LFK1)
T1 sequence: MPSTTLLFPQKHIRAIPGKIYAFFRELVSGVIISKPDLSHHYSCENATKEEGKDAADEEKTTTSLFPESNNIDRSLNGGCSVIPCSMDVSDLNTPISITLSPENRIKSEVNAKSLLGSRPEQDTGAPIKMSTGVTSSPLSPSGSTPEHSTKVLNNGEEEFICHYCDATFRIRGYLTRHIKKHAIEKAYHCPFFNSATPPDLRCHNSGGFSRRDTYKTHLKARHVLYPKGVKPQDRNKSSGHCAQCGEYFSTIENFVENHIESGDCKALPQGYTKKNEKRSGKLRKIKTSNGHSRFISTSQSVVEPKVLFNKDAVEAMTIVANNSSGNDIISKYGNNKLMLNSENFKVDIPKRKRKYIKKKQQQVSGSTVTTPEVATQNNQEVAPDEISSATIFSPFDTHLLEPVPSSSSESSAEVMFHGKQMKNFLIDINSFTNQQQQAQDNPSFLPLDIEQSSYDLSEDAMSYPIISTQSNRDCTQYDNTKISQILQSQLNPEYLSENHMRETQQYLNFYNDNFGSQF
Assay: PBM E-score (8-mer binding enrichment) (E-score (-0.5 to 0.5)); higher = stronger / more preferred TF binding; most listed sequences are background and not binding sites
Details: protein concentration: 200 nM; construct: GST-full length
Protocol: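 Universal 'all 10-mer' protein binding microarrays (Agilent AMADID 015681) probed with GST-tagged S. cerevisiae TFs (full-length or DBD) made by in vitro transcription/translation (PURExpress), about 100-200 nM. Bound TF was detected with fluorescent anti-GST. Each ungapped 8-mer (which stands for itself and its reverse complement) is scored by the PBM enrichment score (E-score), a modified Wilcoxon-Mann-Whitney statistic from -0.5 to +0.5, computed with the Universal PBM Analysis Suite. Scale: above 0.35 generally sequence-specific binding.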

| Sequence | PBM E-score |
| --- | --- |
| ACGTATCA | 0.0537 |
| CCAGGTAC | -0.0869 |
| AACCTGCC | -0.0866 |
| CGGAGAAA | -0.0217 |
| CAGCAGAC | 0.0423 |
| CAGCGCCG | 0.446 |
| CCCCTTCG | -0.161 |
| GCACATAA | 0.0278 |
| CAAAGTCC | -0.0255 |
| TATGTGAA | -0.117 |
| GCCTAACC | -0.159 |
| AGATCAAG | 0.00406 |
| AAGGTTCG | -0.0246 |
| GTTGGCAA | 0.0689 |
| TAGAGTAA | 0.163 |
| TCCGTTAA | 0.154 |
| CTTATGTC | -0.0503 |
| CGGTTCCC | -0.147 |
| CTCCAGAC | -0.0753 |
| GGGACAAA | -0.155 |
| CAACCGCC | 0.0188 |
| TAGGTTAA | -0.0178 |

| Sequence | PBM E-score |
| --- | --- |
| CTATAGCC | -0.136 |
| CGGTGCAC | 0.0116 |
| ACTATTCA | 0.132 |
| ATCCGGTG | 0.0054 |
| CATGGCCC | -0.149 |
| CCGTATAC | 0.221 |
| CCGAGACA | -0.0488 |
| AAGCGCTT | 0.0783 |
| CTAATTAG | 0.0953 |
| GCACAAGC | 0.0702 |
| AGGGGCCC | -0.143 |
| CACGATCC | 0.00499 |
| AGAGCTAC | -0.11 |
| ATTCAGAA | 0.0953 |
| CGGCACTC | 0.365 |
| CCGAAGGA | -0.0869 |
| ATACACGG | 0.25 |
| AGCGGATG | -0.0707 |
| GACTTTCA | -0.217 |
| GACAACCC | -0.173 |
| AAATGATA | 0.146 |
| ATGTAAAT | 0.104 |

| Sequence | PBM E-score |
| --- | --- |
| CTGTCCGC | 0.0634 |
| TGATAGCA | 0.0459 |
| ACAACCGT | -0.0345 |
| GAGAGACC | -0.191 |
| TACATCTA | 0.0374 |
| ACGTCCGC | 0.134 |
| ACTCGAAA | -0.0173 |
| ATAAACTA | 0.202 |
| ACGAGTCG | 0.00615 |
| CGAAGGAG | -0.0226 |
| CGTAACAA | 0.18 |
| ACATGGCC | 0.147 |
| ACAACCTA | -0.164 |
| TTGACCAA | 0.06 |
| ACATAGCT | -0.212 |
| ATTCTGTC | -0.00835 |
| AATGTCAC | 0.136 |
| CGCTTTAA | 0.0115 |
| GTCTCTGA | 0.046 |
| ACCATTAG | -0.024 |
| GTAATACA | 0.04 |
| ATATTGAC | -0.165 |

| Sequence | PBM E-score |
| --- | --- |
| AAGCCCCT | -0.287 |
| TCACTTAA | -0.02 |
| GCTATTAA | 0.183 |
| GGAATACC | -0.213 |
| AGAAAACC | -0.0487 |
| CCCGGTCA | -0.287 |
| GCACATGA | -0.122 |
| GTTGTCAA | 0.09 |
| CTCTTTAC | 0.0569 |
| ACTTGACA | -0.0811 |
| CAAGCGGC | 0.466 |
| GACGCGGC | 0.466 |
| ACTACGGC | 0.359 |
| CGACGTTA | 0.118 |
| ACACAACA | 0.00352 |
| AATGTTTC | -0.0414 |
| AATGGATG | -0.09 |
| ACAGGTAA | -0.0174 |
| AATTTGGT | 0.0871 |
| ATGCTCCG | -0.0916 |

— the supplement of paper PMC3334620
